# Measured values from PubChem BioAssay AID1030 (National Center for Advancing Translational Sciences (NCATS), 2008).
# In all, about 220,000 compounds went through this assay and about 16,000 (7.3%) were called active. Inconclusive means that the source gave no clear call. Such entries were picked first, then a sample of the others. The call rests on the fitted dose curve; in most records, active means well fitted inhibition curve with a large enough effect (not every such curve was filed as active); inconclusive means small, poorly fitted or top-dose-only effect, or another doubt; inactive means no such curve, though single readings can be large or run the other way. No potency is given beside an inconclusive call; the fits are too rough.
# Biological target: Aldehyde dehydrogenase 1A1 (Homo sapiens) (UniProt P00352)
# Assay: qHTS Assay for Inhibitors of Aldehyde Dehydrogenase 1 (ALDH1A1);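 on activity, negative = inhibition: plate controls were no enzyme wells and a reference inhibitor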
# Settings: Purified ALDH1A1, NADH fluorescence, propionaldehyde substrate; series mostly up to 75.3 µM; activity, negative = inhibition: at the top concentration
# Potency means the concentration at half of the fitted maximal effect; tags describe the fitted curve by direction and shape.
# Sequence of UniProt P00352 (P00352 whole entry, looked up): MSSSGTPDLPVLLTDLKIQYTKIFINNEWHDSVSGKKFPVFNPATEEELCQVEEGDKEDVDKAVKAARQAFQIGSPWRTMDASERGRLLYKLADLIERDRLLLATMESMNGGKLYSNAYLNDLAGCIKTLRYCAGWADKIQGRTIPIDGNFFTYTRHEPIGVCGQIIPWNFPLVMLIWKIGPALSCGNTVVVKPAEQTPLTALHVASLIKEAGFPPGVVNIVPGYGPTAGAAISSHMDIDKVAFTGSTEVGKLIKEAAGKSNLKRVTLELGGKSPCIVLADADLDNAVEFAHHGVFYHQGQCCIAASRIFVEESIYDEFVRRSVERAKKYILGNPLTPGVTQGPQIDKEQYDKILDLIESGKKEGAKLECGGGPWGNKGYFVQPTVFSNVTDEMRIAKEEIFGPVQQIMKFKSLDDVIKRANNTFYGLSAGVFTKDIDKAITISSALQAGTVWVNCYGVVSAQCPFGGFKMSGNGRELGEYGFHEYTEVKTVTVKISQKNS
Structure (SMILES),Potency,"activity, negative = inhibition"
Cc1cc(NC(=O)CN2CCN(C)CC2)no1,"inconclusive [inhibitor, partial curve]",
COCCCn1c(Cc2csc(Nc3cccc(Cl)c3)n2)nnc1SCC(=O)OC1CCCCC1,"inconclusive [inhibitor, single point]",
COC(=O)C1=C(C)OC(N)=C(C#N)C1c1cc(C)sc1C (stereo not given),"inconclusive [inhibitor, single point]",
CCCCc1nc(SCCN2CCOCC2)c2c(=O)n(C)c(=O)n(C)c2n1,"inconclusive [inhibitor, full curve]",
COc1ccccc1N1CCN(/N=C/C=C\c2ccccc2[N+](=O)[O-])CC1,"inconclusive [inhibitor, single point]",
COCCn1c(SCC(=O)c2ccc(F)cc2)nnc1C(C)C,active: 12.6 µM,
O=c1[nH]c(/C=C/c2cccnc2)c([N+](=O)[O-])c(=O)[nH]1,,inactive: 6.6%
COc1ccccc1NS(=O)(=O)c1ccc(O)c(C(=O)OCC(=O)N2c3ccccc3CC2C)c1 (stereo not given),active: 7.94 µM,
Cc1ccc(NC(=O)c2ccccc2NS(=O)(=O)c2ccc(F)cc2)cc1S(=O)(=O)N1CCCCC1,"inconclusive [inhibitor, partial curve]",
CC(C)Cn1cc(C(=O)N2CCN(c3ccccn3)CC2)c2c3ccccc3n(C)c2c1=O,"inconclusive [inhibitor, partial curve]",
COc1ccc(S(=O)(=O)N[C@H](C(=O)N2CC[C@@]3(O)CCCC[C@H]3C2)c2ccccc2)cc1,active: 12.6 µM,
O=C(COc1ccccc1)N1CCN(S(=O)(=O)c2cccs2)CC1,"inconclusive [inhibitor, single point]",
CC1CCCCC1NC(=O)CSc1nncs1 (stereo not given),,inactive: 0.533%
COc1ccc(N2C(=O)CCC2(C#N)c2ccc(OC)cc2)cc1 (stereo not given),"inconclusive [inhibitor, single point]",
Cc1cccn2c(=O)c3cc(C#N)c(=NC(=O)c4cccs4)n(CCCOC(C)C)c3nc12,"inconclusive [inhibitor, partial curve]",
COc1cc(NC(=O)c2ccc3c(SCC(=O)O)c4c(nc3c2)CCCC4)cc(OC)c1OC,active: 10 µM,
O=C(/C=C/c1ccco1)NC(=S)Nc1ccc(N2CCOCC2)c(Cl)c1,,inactive: -6.21%
COc1ccc(C2C(C#N)=C(C)NC(C)=C2C#N)c(OC)c1,"inconclusive [inhibitor, partial curve]",
COc1ccccc1CNc1ncnc2ccc(-c3ccccc3C#N)cc12,"inconclusive [inhibitor, partial curve]",
COc1ccc(NS(=O)(=O)c2cccc(Cl)c2)cc1S(=O)(=O)N1CCCCC1,active: 15.8 µM,
CCCC(=O)NC(=S)Nc1cccc(NC(=O)c2ccccc2Cl)c1,"inconclusive [inhibitor, partial curve]",
COC(=O)c1cc(C(=O)c2cc(F)ccc2O)cn2c(=O)c3c(C)c(C)sc3nc12,"inconclusive [inhibitor, partial curve]",
Cc1cccc(-c2nnc(SCC3CNC(=O)O3)n2-c2ccc(Cl)cc2)c1 (stereo not given),active: 1.41 µM,
O=C(NCCc1nnc2ccc(NCC3CCCO3)nn12)c1ccccc1 (stereo not given),,inactive: 13.2%

Structure (SMILES),Potency,"activity, negative = inhibition"
CCc1cc(=O)oc2cc(C)c3c(C)coc3c12,"inconclusive [inhibitor, partial curve]",
COc1ccc(NC(=O)CC2C(=O)N(CCc3ccccc3)C(=S)N2Cc2cccnc2)cc1 (stereo not given),"inconclusive [inhibitor, single point]",
Brc1ccc(-c2nn3c(-c4ccco4)nnc3s2)o1,"inconclusive [inhibitor, single point]",
COc1cccc(/C(O)=C/c2nc3ccc(C(=O)NCCc4cccc(C)c4)cc3[nH]c2=O)c1,"inconclusive [inhibitor, single point]",
O=C(NCc1ccccn1)c1cc(-c2ccc(-c3ccccc3)cc2)nc2ccccc12,"inconclusive [inhibitor, partial curve]",
CCCN1C(=O)/C(=C/c2ccc(C)o2)NC1=S,active: 7.08 µM,
Cc1cc(C(=O)OCC(=O)Nc2ccc(S(=O)(=O)N3CCOCC3)cc2)c(C)o1,"inconclusive [inhibitor, single point]",
O=C(OCCN1C(=O)c2ccccc2C1=O)c1ccco1,"inconclusive [inhibitor, single point]",
Cc1cccc(-c2csc(N)c2C(=O)OC(C)C)c1,"inconclusive [inhibitor, single point]",
CNc1nc(C(=O)O)nc(N2CCOCC2)n1,"inconclusive [inhibitor, full curve, poor fit]",
CC(/C=N/n1c(-c2ccc(Cl)cc2)n[nH]c1=S)=C\c1ccco1,active: 28.2 µM,
CNc1ccc(C2(O)C(=O)c3ccccc3C2=O)cc1,,inactive: 13.9%
Cc1ccc(/C=C/C2=C[C@]3(C)C[C@]2(C)[C@H](c2ccc(C)cc2)CC3=O)cc1,"inconclusive [inhibitor, single point]",
O=C(COC(=O)Cc1ccccc1[N+](=O)[O-])NCc1ccc(F)cc1,,inactive: -7.86%
CCn1c(SCC(=O)Nc2cc(C)on2)nnc1-c1c[nH]c2ccccc12,active: 28.2 µM,
Cc1ccc(S(=O)(=O)N2CCC(CN3C(=O)c4cccc5cccc(c45)C3=O)CC2)cc1,"inconclusive [inhibitor, partial curve]",
CCN(CCCNC(=O)CCc1nc(-c2ccc(C)cc2)no1)c1cccc(C)c1,"inconclusive [inhibitor, partial curve]",
COC(CNC(=O)c1ccc(N2CCCC2=O)cc1)OC,"inconclusive [inhibitor, single point]",
CC(=O)NCC(=O)N1CCCC(C(=O)c2ccc(-c3ccccc3)c(F)c2)C1 (stereo not given),"inconclusive [inhibitor, single point]",
Cc1cccc(CCNC(=O)C2CCN(S(=O)(=O)c3ccccc3)CC2)c1,,inactive: -10.8%
O=C(NNc1c(Cl)cccc1Cl)c1cccs1,active: 25.1 µM,
CCOC(=O)c1[nH]ncc1CN1CCCC(C(=O)c2ccc(SC)cc2)C1 (stereo not given),active: 35.5 µM,
N#Cc1c(Nc2ccccc2)sc(C(=O)c2ccccc2)c1N,active: 12.6 µM,
Cn1c(CN2CCCCC2)c(C#N)c2ccccc21,"inconclusive [inhibitor, single point]",

Structure (SMILES),Potency,"activity, negative = inhibition"
CN1/C(=C\C(=O)COC(=O)c2ccc([N+](=O)[O-])o2)C(C)(C)c2ccccc21,"inconclusive [inhibitor, single point]",
Cc1ccsc1/C=N/n1c(=S)[nH]nc(C)c1=O,,inactive: -0.343%
CCNc1ncc2nc(C)c(=O)n(C3CC3)c2n1,"inconclusive [inhibitor, partial curve]",
COc1ccc(C(=O)NC2CC(C)(C)Cc3occc32)cc1 (stereo not given),"inconclusive [inhibitor, single point]",
COc1cccc(-c2nccc(NCc3ccccc3)n2)c1,"inconclusive [inhibitor, partial curve]",
S=C(Nc1ccc2c(c1)OCCO2)Nc1ccc2c(c1)OCO2,active: 22.4 µM,
O=C(CCc1nc2ccccc2c(=O)[nH]1)NCc1ccco1,,inactive: 3.4%
CCN(c1cccc(C)c1)C(C(=O)Nc1ccc(OC)cc1)c1cc2c(cc1[N+](=O)[O-])OCO2 (stereo not given),"inconclusive [inhibitor, single point]",
CCOC(=O)C1C(=O)C=C(c2cccs2)CC1c1ccccc1 (stereo not given),"inconclusive [inhibitor, partial curve]",
O=C(C1CCCCN1S(=O)(=O)c1ccccc1)N1CCCCC1 (stereo not given),"inconclusive [inhibitor, single point]",
C[C@@H]1CCC2[C@@H](C)[C@@H](O)O[C@@H]3O[C@@]4(C)CC[C@@H]1[C@@]23OO4 (stereo not given in full),"inconclusive [inhibitor, single point]",
CCC(=O)NC(=S)Nc1ccc2oc(-c3ccc(OC)cc3)nc2c1,,inactive: -6.71%
CC(C)Cn1c(-c2ccccc2)nc2ccccc2c1=O,"inconclusive [inhibitor, partial curve]",
COC(=O)[C@@]1(Cc2ccc(OC)cc2)[C@H]2c3cc(C(=O)N4CCCC4)n(CCc4ccc(OC)c(Br)c4)c3C[C@H]2CN1C(=O)c1ccccc1,"inconclusive [inhibitor, partial curve]",
Cc1cc(C)nc(Nc2n[nH]c(COc3ccc(Cl)cc3)n2)n1,,inactive: 9.12%
Cc1ccc(S(=O)(=O)N2CCN(CC(=O)NC3CCCc4ccccc43)CC2)cc1C (stereo not given),active: 0.447 µM,
COc1ccc(C2CC(=O)c3cnc(NC(=O)c4ccccc4)nc3C2)c(OC)c1 (stereo not given),,inactive: 3.92%
CC(=O)Nc1ccc(S(=O)(=O)Nc2cccc(NC(=O)c3ccco3)c2)cc1,,inactive: 13.3%
CC(=O)N1CCCc2cc(S(=O)(=O)Nc3ccc4c(c3)OCO4)ccc21,"inconclusive [inhibitor, partial curve]",
CCOCC(=O)Nc1ccc([N+](=O)[O-])cc1Cl,"inconclusive [inhibitor, single point]",
COc1ccccc1-c1ccc2ncnc(N3CCN(C)CC3)c2c1,"inconclusive [inhibitor, single point]",
CSC1=C(C#N)C(C)CC(=O)N1 (stereo not given),"inconclusive [inhibitor, partial curve]",
